Measurements published in PubChem BioAssay AID652106 (National Center for Advancing Translational Sciences (NCATS), 2013).
In all, about 370,000 compounds went through this assay and about 500 (0.14%) were called active. This list was built around the results that the source calls inconclusive (neither active nor inactive); the mix of calls is not that of the screen. The call rests on the fitted dose curve; in most records, active means well fitted activation curve with a large enough effect; inconclusive means small, poorly fitted or top-dose-only effect; inactive means no such curve, though single readings can be large or run the other way. Potencies of inconclusive entries are left out as doubtful fits.

test: qHTS of alpha-syn Inhibitors; conditions: Yeast expressing alpha-synuclein, BacTiter-Glo, 24 h; Potency: growth rescue unless noted; growth rescue (activation): at 46.1 µM (top of the series) unless noted; further: nearly all actives have a fitted effect of over 65% in size; on growth rescue (activation): % of control where 0% means no effect
Outline: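 Rescue of yeast growth: cells expressing toxic alpha-synuclein, induced in galactose at OD600 0.02, incubated with compound 24 h at 30 C. ATP luminescence quantified growth; inhibitors of toxicity appear as activators.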
Potency means the concentration at half of the fitted maximal effect; tags describe the fitted curve by direction and shape.

Row | Structure (SMILES) | Potency | growth rescue (activation)
1 | O=c1c2ccccc2oc2c1oc1ccccc12 | inconclusive [activator, single point] | –
2 | CCOc1ccc(N2C(=O)CC(Sc3ccccc3C(=O)O)C2=O)c([N+](=O)[O-])c1 (stereo not drawn) | – | inconclusive: -74.5% [activator]
3 | CC1CCN(C(=O)c2ccc(NC3=C(Cl)C(=O)N(Cc4ccccc4)C3=O)cc2)CC1 | inconclusive [activator, single point] | –
4 | Cc1nnc(NC(=O)c2ccc(S(=O)(=O)N(C)Cc3ccccc3)cc2)o1 | inconclusive [activator, single point] | –
5 | CSCCC(NS(=O)(=O)c1ccc(Cl)cc1)C(=O)OCc1cccc(Cl)c1 (stereo not drawn) | inconclusive [activator, partial curve] | –
6 | O=S(=O)(c1cccnc1)N1CCN(c2nc(-c3cccs3)nc3ccccc23)CC1 | inactive | –
7 | CC(C)(C)C(=O)NC(=S)Nc1ccccn1 | inconclusive [activator, single point] | –
8 | Cc1cc(SCC(=O)NC(=O)NCc2ccco2)nc2c(C)cccc12 | active: 11.2 µM | –
9 | O=C1C(Cl)=C(NCC2CCCO2)C(=O)N1c1cccc(Cl)c1Cl (stereo not drawn) | inactive | –
10 | CCOC(=O)c1cc(-c2ccccc2C)nn1CC1CC(c2cccnc2)=NO1 (stereo not drawn) | inconclusive [activator, single point] | –
11 | CCNC(=O)C1(C)CCCN(C(=O)COCc2ccccc2)C1 (stereo not drawn) | inactive | –
12 | CCN(CC)S(=O)(=O)c1ccc(Cl)c(C(=O)Oc2cccc(-c3cnc4ccccc4n3)c2)c1 | inactive | –
13 | CC1ON=C(c2ccc(F)cc2)NC1=O (stereo not drawn) | inactive | –
14 | CSC[C@H]1CN(Cc2ccccc2)C(=O)[C@@H]1CC(=O)Nc1ccccc1 | inconclusive [activator, single point] | –
15 | COc1cc2c(NC3CCN(C)CC3)nc(N3CCCN(C)CC3)nc2cc1OCCCCN | inconclusive [activator, full curve] | –
16 | COc1ccc(Cl)cc1CNC[C@H]1O[C@@H](n2ccc(N)nc2=O)[C@H](O)[C@@H]1O | inconclusive [activator, single point] | –
17 | CSC1=NCCN1C(=O)Cc1ccc(-c2ccccc2)cc1 | inconclusive [activator, single point] | –
18 | Cc1noc(C)c1-c1ccc(C(=O)NCCN2CCOCC2)c2occc12 | inactive | –
19 | COc1ccc(C2CC(c3ccccc3)=NN2C(=O)COC(=O)c2cccc(N)c2)cc1 (stereo not drawn) | inconclusive [activator, single point] | –
20 | CC1CN=C(NS(=O)(=O)c2ccccc2)N1 (stereo not drawn) | inconclusive [activator, single point] | –
21 | COC(=O)C[C@H]1C=C[C@H](NC(=O)Cc2ccccc2)[C@@H](CO)O1 | active: 3.55 µM | –
22 | O=C(COC(=O)/C=C/c1ccc(Cl)cc1)NC1CCCCCC1 | inactive | –
23 | COc1ccc2c(c1)[C@@H]1[C@H](CO2)[C@H](c2ccccc2)[C@]2(C)C(=O)Nc3ccc(C)cc3C(=O)N12 | inconclusive [activator, single point] | –

Row | Structure (SMILES) | Potency | growth rescue (activation)
24 | COc1ccccc1-c1csc(C(O)c2ccc(F)c(F)c2)n1 (stereo not drawn) | inconclusive [activator, single point] | –
25 | O=S(=O)(NC12CC3CC(CC(C3)C1)C2)c1ccc(F)cc1 | inconclusive [activator, single point] | –
26 | Cc1cccc(N2CCN(C(=O)C3CCN(c4ncnc5c4nc4n5CCCCC4)CC3)CC2C)c1 (stereo not drawn) | inconclusive [activator, single point] | –
27 | O=C(COc1ccccc1F)N1N=C(c2cccs2)CC1c1ccco1 (stereo not drawn) | inconclusive [activator, single point] | –
28 | COc1ccc(CN(C)C(=O)c2ccc(OCC(=O)Nc3cccc(C(F)(F)F)c3)c(OC)c2)cc1 | inconclusive [activator, single point] | –
29 | O=S(=O)(Nc1ccc(-c2nc3ccccc3o2)cc1)c1ccccc1 | inactive | –
30 | COc1ccc(CNC(=O)[C@H](C)NC(=O)C2CCN(C(=O)[C@@H](N)CCSC)CC2)cc1 | inconclusive [activator, single point] | –
31 | C#CCNC(=O)C[C@@H]1C[C@@]2(C(=O)OC)CCCCC=C2N(CCCCCCCC)C1=O | inconclusive [activator, single point] | –
32 | Cc1ccc(NC2=C(N3CCCCC3)C(=O)c3ccccc3C2=O)cc1 | inconclusive [activator, single point] | –
33 | CCCN1CCc2c(sc(NC(=O)c3ccc(S(=O)(=O)N4CCCC4)cc3)c2C(N)=O)C1 | inconclusive [activator, single point] | –
34 | Cc1ccc2c3c1C(=O)C(=O)N3C(C)(C)CC2C (stereo not drawn) | inconclusive [activator, single point] | –
35 | Cc1cccc(NS(=O)(=O)c2cc(C(=O)N3CCc4ccccc4C3)ccc2Cl)c1C | active: 10 µM | –
36 | O=C(NNc1nc2ccc(F)cc2s1)c1cccc(F)c1 | inconclusive [activator, single point] | –
37 | CCSc1nnc(NC(=O)C2(C)Cc3ccccc3C(=O)O2)s1 (stereo not drawn) | inconclusive [activator, single point] | –
38 | Cc1csc2c(N3CCN(C(=O)c4ccc(C(C)(C)C)cc4)CC3)ncnc12 | inconclusive [activator, single point] | –
39 | Cc1[nH]c(-c2ccc(F)cc2)cc1C(=O)N1CCN(c2cccc(Cl)c2)CC1 | inconclusive [activator, single point] | –
40 | CN(C)S(=O)(=O)c1cc(NC(=O)COC(=O)c2nc(Cl)ccc2Cl)ccc1Cl | inconclusive [activator, single point] | –
41 | COc1ccc(-c2sc(Nc3ccc(F)c(F)c3F)nc2CCC(=O)NN)cc1 | inactive | –
42 | Nc1nc2c(ncn2[C@@H]2O[C@H](CNCc3ccc4ncccc4c3)[C@@H](O)[C@H]2O)c(=O)[nH]1 | inconclusive [activator, single point] | –
43 | O=C(CSc1nnc(COc2ccccc2)o1)Nc1nccs1 | inconclusive [activator, single point] | –
44 | O=C(c1ccccc1)N1CCCCC(Sc2nnnn2-c2ccccc2)C1=O (stereo not drawn) | inconclusive [activator, partial curve] | –
45 | Oc1ccc(Cl)cc1CNC1CCCCC1 | inactive | –
46 | O=C(COc1ccccc1)NNC(=S)NC(=O)c1ccccc1 | inconclusive [activator, full curve] | –

Row | Structure (SMILES) | Potency | growth rescue (activation)
47 | O=C(c1ccc(COc2ccccc2)o1)N1CCN(S(=O)(=O)c2ccccc2Cl)CC1 | inactive | –
48 | CC1=CC(C)(C)NC(=S)N1c1ccc2ccccc2c1 | inactive | –
49 | Cc1onc(-c2ccccc2)c1C(=O)NC(=S)NNC(=O)c1ccccc1O | inconclusive [activator, partial curve] | –
50 | CCOC(=O)c1c(Nc2ccc(OC)cc2)nnc(-c2ccccc2)c1-c1ccccc1 | inactive | –
51 | COc1cccc(CNC(=O)CSc2ccc(-c3ccccn3)nn2)c1 | inconclusive [activator, single point] | –
52 | COc1cc(C)c(C(=O)Oc2cc(C)c(C(=O)O)c(O)c2C)c(O)c1C | inconclusive [activator, single point] | –
53 | Cc1ccc(S(=O)(=O)Nc2ccc(SC(F)F)cc2)c(C)c1 | active: 17.8 µM | –
54 | Cc1cc(C)c2nc3nc(C)c(C)cc3c(N)c2c1 | inconclusive [activator, partial curve] | –
55 | CCc1nn2c(=O)c(S(=O)(=O)Nc3ccc(Cl)cc3)c(C)nc2s1 | inconclusive [activator, single point] | –
56 | CC(C)(C)c1ccc(/C=C(\C#N)C(=O)NC2CC2)cc1 | inactive | –
57 | COc1cc([N+](=O)[O-])cc(/C=N\NC(=O)C2COc3ccccc3O2)c1O (stereo not drawn) | inconclusive [activator, single point] | –
58 | CCOC(=O)/C(=C/c1ccc(OC(=O)c2ccncc2)cc1)C(C)=O | inconclusive [activator, single point] | –
59 | O=C(Oc1ccc(N(C(=O)c2ccncc2)S(=O)(=O)c2ccc(F)cc2)cc1)c1ccncc1 | inconclusive [activator, single point] | –
60 | Cc1cccc(C#CC2=CC(=O)CC(C)(C)C2)c1 | inconclusive [activator, single point] | –
61 | CCOC(=O)Cn1c(=O)n(-c2ccccc2OC)c2nc(-c3ccccc3)nc(C(N)=O)c21 | inconclusive [activator, single point] | –
62 | COc1cccc(NC(=O)CN2CCN(c3ccccc3F)CC2)c1 | inactive | –
63 | COc1ccc(OC)c(/C=C2\SC(N3CCCC(C)C3)=NC2=O)c1 (stereo not drawn) | inactive | –
64 | O=c1c2cc(Br)ccc2nc(-c2ccccc2)n1O | inactive | –
65 | CC(=O)OC[C@H]1O[C@@H](n2ncc(=O)[nH]c2=O)[C@H](OC(C)=O)[C@@H]1OC(C)=O | inconclusive [activator, single point] | –
66 | COc1ccc(N2CCN(C(=O)CN3c4cccc5cccc(c45)S3(=O)=O)CC2)cc1 | inconclusive [activator, single point] | –
67 | O=C(OCC(=O)N1CCC(Cc2ccccc2)CC1)c1ccccc1F | inconclusive [activator, single point] | –
68 | CCC(C)c1ccccc1N1CC(C(=O)NCCC2=CCCCC2)CC1=O (stereo not drawn) | inconclusive [activator, single point] | –
